The record followed here is PubChem BioAssay AID360 (National Center for Advancing Translational Sciences (NCATS), 2006).

Hit rate of the full screen: of about 48,000 compounds, about 550 (1.1%) were called active. Not shown: some 4% with an inconclusive outcome. Rule as the data show it: active = potency below about 15 µM; inconclusive = mostly about 16 µM to 33 µM; inactive = weaker than that. The list shows a part of the results. A value given as a limit tells only on which side of the number the result lay.
Potency is read from the fitted curve at half-maximal effect.

Sequence of UniProt P04062 (P04062 whole entry, looked up): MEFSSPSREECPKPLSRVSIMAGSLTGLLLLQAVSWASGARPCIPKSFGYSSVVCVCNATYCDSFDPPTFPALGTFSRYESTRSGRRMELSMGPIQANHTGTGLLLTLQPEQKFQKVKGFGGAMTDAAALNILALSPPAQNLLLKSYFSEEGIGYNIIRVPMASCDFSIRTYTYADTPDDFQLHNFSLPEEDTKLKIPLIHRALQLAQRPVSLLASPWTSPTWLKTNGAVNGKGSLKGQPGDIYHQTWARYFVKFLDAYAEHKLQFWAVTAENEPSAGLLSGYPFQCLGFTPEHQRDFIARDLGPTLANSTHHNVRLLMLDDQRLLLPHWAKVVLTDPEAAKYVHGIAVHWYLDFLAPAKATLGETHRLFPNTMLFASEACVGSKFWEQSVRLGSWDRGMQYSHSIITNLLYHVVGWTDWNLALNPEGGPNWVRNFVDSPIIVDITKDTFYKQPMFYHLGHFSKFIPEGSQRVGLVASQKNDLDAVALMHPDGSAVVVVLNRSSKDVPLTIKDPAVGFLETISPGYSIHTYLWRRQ

The target in the assay is Lysosomal acid glucosylceramidase (Homo sapiens) (UniProt P04062). The assay is described as follows: Glucocerebrosidase.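 Also: the screen sought inhibitors.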 The settings on record: purified enzyme, resorufin glucoside fluorescence (screen aimed at inhibitors), 20 min; series mostly up to 77 µM. An outline of the steps:
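Normal human glucocerebrosidase (0.2 nM final) was assayed with resorufin β-D-glucopyranoside (30 uM final) in 50mM citric acid/KH2PO4, 10mM sodium taurocholate, 0.01% tween-20, pH 5.9. Compounds were titrated; fluorescence (Ex 548, Em 600) read after 20 min at RT.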
Take `COc1ccccc1-n1nnnc1SCC(=O)Nc1cc(C)on1`: the Potency is inactive: > 76.9 µM. For the molecule `O=C(C1CCCO1)N1CCN(Cc2nc3ccccc3c(=O)[nH]2)CC1` (configuration not stated), the Potency is inactive: > 76.9 µM.

Take `CC(C)(O)C#CC#CCN1CCOCC1`: the Potency is inactive: > 76.9 µM. Next, `Cc1cc2c(ccc3[nH]onc32)n1`: inactive: > 76.9 µM. The result for `COC(=O)c1nnn(Cc2ccccc2)c1N` reads inactive: > 76.9 µM; that for `c1ccc(OCCCc2nc(-c3cccnc3)no2)cc1`, inactive: > 15.4 µM.

Regarding `CC1C(=O)C(C)C(c2ccco2)NC1c1ccco1` (configuration not stated), the Potency was inactive: > 76.9 µM. On to `C=CCNC(=O)c1sc(=S)n(-c2ccc(C(=O)OCC)cc2)c1N`, for which the Potency was inactive: > 76.9 µM. The result for `CCOC(=O)c1oc2ccccc2c1NC(=O)c1ccc(S(=O)(=O)N(C)C)cc1` reads inactive: > 76.9 µM; that for `COc1ccc(C(=O)NCC(=O)OCC(=O)NC(=O)NC2CCCCC2)cc1OC`, inactive: > 76.9 µM; that for `O=C(Nc1ccc2nn(-c3ccccc3)nc2c1)c1ccc2c(c1)OCO2`, inactive: > 76.9 µM.

Regarding `CCCCCCOc1ccc(OCC(O)CN2C(=O)NC(C)(C)C2=O)cc1` (configuration not stated), the Potency was inactive: > 76.9 µM. Next, `c1ccc2c(c1)ncn2Cc1nnc2sc(-c3ccc4c(c3)OCO4)nn12`: inactive: > 76.9 µM; `COc1cc(CN2CCN(S(=O)(=O)c3ccc(NC(C)=O)cc3)CC2)cc(OC)c1O`: inactive: > 76.9 µM; `Cn1c(=O)c2[nH]c(-c3cccnc3)nc2n(C)c1=O`: inactive: > 76.9 µM. The result for `Cc1cccc(-n2ccnc2SCC(=O)Nc2cc(C)on2)c1` reads inactive: > 76.9 µM. Regarding `CCN(CC)S(=O)(=O)c1cccc(-c2nnc(SCc3ncc(-c4ccccc4)o3)n2C)c1`, the Potency is inactive: > 76.9 µM.

In the case of `Cn1cnnc1SC(C(=O)c1ccccc1)c1ccccc1` (configuration not stated), the Potency was inactive: > 76.9 µM. As for `COc1cc2c(cc1OC)C(c1cc3cc(OC)c(OC)cc3[nH]c1=O)N(C(=O)C1CC1)CC2` (configuration not stated), the Potency is inactive: > 76.9 µM. For the molecule `COc1ccc(NC(=O)CSc2nnc(-c3ccc(C)cc3)n2N)cc1`, the Potency was inactive: > 76.9 µM. Next, `Clc1ccc(C2=CSC3=NCCN23)cc1Cl`: inactive: > 76.9 µM. In the case of `O=c1cc(C23CC4CC(CC(C4)C2)C3)[nH][nH]1`, the Potency was inactive: > 76.9 µM. The result for `COC(=O)c1ccccc1NC(=O)c1ccccc1SC` reads inactive: > 76.9 µM; that for `CCOC(=O)CSc1nnc(-c2ccc(OC)cc2)n1CC`, inactive: > 76.9 µM; that for `c1ccc(Oc2cccc(OCCn3cncn3)c2)cc1`, inactive: > 76.9 µM. Next, `O=C(CCS(=O)(=O)c1ccc(Br)s1)NCc1cccs1`: inactive: > 76.9 µM; `c1cc2nnnn2nc1N1CCCCC1`: inactive: > 76.9 µM. On to `CN(C)c1cccc(C(=O)n2cc(C(=O)c3cc(F)ccc3O)cn2)c1`, for which the Potency was inactive: > 76.9 µM. In the case of `CN(Cc1cc2ccccc2[nH]c1=O)S(=O)(=O)c1ccccc1`, the Potency is inactive: > 76.9 µM.

Turning to `Cc1cc(C)c2[nH]c(=O)c(CN(Cc3nnnn3C3CCCC3)C3CCCCC3)cc2c1`, the Potency was inactive: > 76.9 µM. Next, `COc1ccc(OC)c(C2C(C(=O)c3cc4ccccc4o3)=C(O)C(=O)N2c2cc(C)on2)c1` (configuration not stated): inactive: > 76.9 µM; `CCCn1c(=NC(=O)c2ccncc2)c(C#N)cc2c(=O)n3cccc(C)c3nc21`: inactive: > 76.9 µM; `O=C(O)Cn1nc(C(F)(F)F)c2c1CCC2`: inactive: > 76.9 µM.

For the molecule `Cc1nn(CC(=O)O)c(C)c1C`, the Potency is inactive: > 76.9 µM. The result for `O=C(NCCc1ccccc1)NC1CCCCC1` reads inactive: > 76.9 µM. The result for `CC(=O)NC1CCC(C(=O)O)(c2ccccc2)C1` (configuration not stated) reads inactive: > 76.9 µM.

For `CC(=O)Nc1ccc(NC(=O)Cn2cc3c(n2)CCCC3)cc1`, the Potency is inactive: > 76.9 µM. On to `CC(C)[C@H](NC(=O)CCn1nnc2ccccc2c1=O)C(=O)O`, for which the Potency is inactive: > 76.9 µM. Next, `O=C(Nc1nccs1)C1C2CC3OC(=O)C1C3C2` (configuration not stated): inactive: > 76.9 µM; `Cc1csc(NC(=O)CSc2nc3ccccc3c(=O)[nH]2)n1`: inactive: > 76.9 µM. Next, `CC(C)CN(CC(C)C)C(=O)C12CCC(C)(C(=O)C1)C2(C)C` (configuration not stated): inactive: > 76.9 µM; `O=C(Nc1ccc(N2CCCC2)cc1)c1cccc(F)c1`: inactive: > 76.9 µM. For `CCOC(=O)N1CCc2c(sc3c2C(=O)NC(c2ccccc2)N3)C1` (configuration not stated), the Potency is active: 4.02 µM. As for `O=c1[nH]c(CN2CCC(c3nc4ccccc4s3)CC2)nc2sc3c(c12)CCC3`, the Potency is inactive: > 76.9 µM.

In the case of `CCOn1c(=O)c(-c2ccc(OC)cc2)[n+]([O-])c2ccccc21`, the Potency was inactive: > 76.9 µM. The result for `O=P(O)(O)c1ccccc1OCCCCCOc1ccccc1P(=O)(O)O` reads inactive: > 76.9 µM; that for `Cc1ccccc1NC(=O)C1CCN(c2cnccn2)CC1`, inactive: > 76.9 µM; that for `CCCN(CCC)C(C(=O)Nc1cccc(OC)c1)c1ccccc1` (configuration not stated), inactive: > 76.9 µM. Next, `Cc1cc(C(F)F)n2ncc(C(=O)NCc3ccccc3)c2n1`: inactive: > 76.9 µM; `CC(=O)Nc1ccc(OCC(O)Cn2nc(C)nc2C)cc1` (configuration not stated): inactive: > 76.9 µM. Next, `O=c1nc2n(c3sc4c(c13)CCC4)Cc1ccccc1-2`: inactive: > 76.9 µM; `CCN(C(=O)c1c(OC)cccc1OC)c1nnc(-c2cccnc2)s1`: inactive: > 76.9 µM.

Turning to `CCCc1ccc(OCc2ccc(C(=O)N3CCN(c4ccccn4)CC3)o2)c(OC)c1`, the Potency is inactive: > 76.9 µM.

As to `CCC(C)[C@H](NC(=O)N1CCCC1)C(=O)O` (some centres not stated), the Potency is inactive: > 76.9 µM.

In the case of `CCOc1ccc(S(=O)(=O)n2cnc3cc(C)c(C)cc32)cc1`, the Potency was inactive: > 76.9 µM.

For `Cc1ccc(S(=O)(=O)c2cc3c(=O)n4ccccc4nc3n(Cc3ccco3)c2=N)cc1C`, the Potency is inactive: > 76.9 µM. Turning to `COc1ccc(S(=O)(=O)N2CCN(C(=O)COc3ccc4c(C)cc(=O)oc4c3)CC2)cc1`, the Potency was inactive: > 76.9 µM. The result for `COc1cc(C2N(c3cc(C)on3)C(=O)C3CCCN32)cc(OC)c1OC` (configuration not stated) reads inactive: > 76.9 µM; that for `COc1cc(C2C(C#N)=C(N)Oc3c2oc(CO)cc3=O)ccc1OC(C)C` (configuration not stated), inactive: > 76.9 µM. `C=C(C)Cn1c(CCNC(=O)C(C)(C)C)nc2ccccc21`: the Potency was inactive: > 76.9 µM. For `CCc1ccc(NC(=O)CSc2nnc(CNC(=O)c3c(F)cccc3Cl)o2)cc1`, the Potency is inactive: > 76.9 µM. For `COc1ccc(N(C(=O)Cn2nnc3ccccc32)C(C(=O)NCc2ccco2)c2ccc(C)o2)cc1` (configuration not stated), the Potency was inactive: > 76.9 µM. Consider `CN1C(=O)Cn2c1nc1ccccc12`, for which the Potency is inactive: > 76.9 µM.

For the molecule `Cc1cc(-c2csc(NC(=O)c3cc4ccccc4o3)n2)c(C)n1C`, the Potency was inactive: > 76.9 µM.

For the molecule `O=C(Cn1nnc(-c2ccc(OCc3ccccc3F)cc2)n1)N1CCOCC1`, the Potency was inactive: > 76.9 µM. As for `Cc1nonc1OCCn1nnnc1N`, the Potency is inactive: > 76.9 µM. Take `Cc1cccc(NC(=O)c2oc3ccc(S(=O)(=O)N4CCOCC4)cc3c2C)c1C`: the Potency is inactive: > 76.9 µM.

As to `O=C(c1ccc(F)cc1)N1CCN(Cc2ccccc2Br)CC1`, the Potency is inactive: > 76.9 µM.

With `CCCCOCC(O)CN1CCN(C(C)=O)CC1` (configuration not stated), the Potency is inactive: > 76.9 µM.

Take `CCC(c1nnnn1CCc1ccccc1)N1CCN(C(=O)c2ccco2)CC1` (configuration not stated): the Potency was inactive: > 76.9 µM. The result for `CNC(=O)CSc1nnc(-c2ccncc2)n1Cc1ccccc1` reads inactive: > 76.9 µM; that for `CC(=O)N1CCCc2cc(S(=O)(=O)NC(C(=O)NCc3ccc(C)cc3)C(C)C)ccc21` (configuration not stated), inactive: > 76.9 µM; that for `O=P(O)(CCCP(=O)(O)CCc1ccccc1)CCc1ccccc1`, inactive: > 76.9 µM.

As for `Cc1nnc(SCc2cccs2)[nH]c1=O`, the Potency is inactive: > 76.9 µM. Next, `CCOc1cc(C)c(Cl)cc1S(=O)(=O)NCc1ccco1`: inactive: > 76.9 µM; `CCCCNS(=O)(=O)c1ccc2nc(SCC(=O)Nc3sccc3C#N)[nH]c2c1`: “inactive”; `O=C(O)C1CC(=O)N(Cc2ccccc2)C1` (configuration not stated): inactive: > 76.9 µM. For the molecule `O=C(CCN1C(=O)C2C3C=CC(C3)C2C1=O)Nc1c(F)cc(F)cc1Br` (configuration not stated), the Potency was inactive: > 76.9 µM.

For `COCCNC(=O)CN(C(=O)CCC(=O)Nc1nccs1)c1ccccc1OC`, the Potency is inactive: > 76.9 µM.

With `CCN(C(=O)Cc1c(C(=O)O)[nH]c2ccccc12)c1cc(OC)ccc1OC`, the Potency is inactive: > 76.9 µM. Consider `COc1cc(C(=O)N2CCN(C(=O)c3ccccc3)CC2)cc(OC)c1OC`, for which the Potency is inactive: > 76.9 µM. Next, `O=C(O)c1cccnc1SC1CC(=O)N(Cc2ccccc2)C1=O` (configuration not stated): inactive: > 76.9 µM; `CCC(C)NS(=O)(=O)c1ccc(OCC(=O)NCc2ccco2)cc1` (configuration not stated): inactive: > 76.9 µM. Next, `CCOC(=O)c1[nH]c(C)c(C(=O)Nc2cc(OC)ccc2OC)c1C`: inactive: > 76.9 µM.

In the case of `CC(C)c1cc(C(=O)Nc2cccc(Cl)c2)no1`, the Potency was inactive: > 76.9 µM.

`Cc1cccc(C)c1NC(=O)C1(NC(=O)C2CCCN2C(=O)OC(C)(C)C)CCCCC1` (configuration not stated): the Potency is inactive: > 76.9 µM.

As to `O=C(Cn1cccc1C(=O)c1ccccc1)NCc1ccccn1`, the Potency was inactive: > 76.9 µM.

As for `CC(C)OC(=O)CC(=O)CSc1nc2c(cc1C#N)CCC2`, the Potency is inactive: > 76.9 µM. The result for `O=C(NCCN1CCCC1=O)Nc1ccccc1` reads inactive: > 76.9 µM; that for `Cc1cc(NC(=O)c2ccc(Br)c(S(=O)(=O)N3CCCC3)c2)no1`, inactive: > 76.9 µM. The result for `N#CCCC12CCCCC1=Nc1ccccc12` (configuration not stated) reads inactive: > 76.9 µM; that for `CCOC(=O)N1CCC(NC(=O)Cn2cccc2C(=O)c2ccccc2)CC1`, inactive: > 76.9 µM.
